Laboratory results as given in the supplement of paper PMC4967469.

What was measured:
Experiment in all cases: Viability of human cancer cell lines after 72 h of drug (GDSC screen)
Cytarabine = compound: Nc1ccn([C@@H]2O[C@H](CO)[C@@H](O)[C@@H]2O)c(=O)n1 [Cytarabine]; conditions: top dose 2 µM
Experimental: (§1)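 Human cancer cell lines in 384-well plates, medium with 10% serum, drug for 72 h over a 256-fold dose range (nine 2-fold or five 4-fold steps up to the top dose). Adherent lines were fixed and stained with the nucleic acid dye Syto60, suspension lines read with resazurin; signal relative to control wells, capped at 0 and 100%. One two-parameter sigmoid per drug and line, fitted in a mixed model over all curves with the slope shared within a line.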

KU-55933 = compound: O=c1cc(-c2cccc3c2Sc2ccccc2S3)oc(N2CCOCC2)c1 [KU-55933]; conditions: top dose 10 µM
Experimental: as §1

MPS-1-IN-1 = compound: COc1cc(N2CCC(O)CC2)ccc1Nc1cc(Nc2ccccc2S(=O)(=O)C(C)C)c2cc[nH]c2n1 [MPS-1-IN-1]; conditions: top dose 20 µM; top dose inferred
Experimental: as §1

GSK269962A = compound: CCn1c(-c2nonc2N)nc2cnc(Oc3cccc(NC(=O)c4ccc(OCCN5CCOCC5)cc4)c3)cc21 [GSK269962A]; conditions: top dose inferred
Experimental: as §1

CP466722 = compound: COc1cc2ncnc(-n3nc(-c4ccccn4)nc3N)c2cc1OC [CP466722]; conditions: top dose 16 µM; top dose inferred
Experimental: as §1

ABT-869 = compound: Cc1ccc(F)c(NC(=O)Nc2ccc(-c3cccc4[nH]nc(N)c34)cc2)c1 [ABT-869]; conditions: top dose 1.024 µM; top dose inferred
Experimental: as §1

QL-X-138 = compound: C=CC(=O)Nc1cc(-n2c(=O)ccc3cnc4ccc(-c5cn[nH]c5)cc4c32)ccc1C [QL-X-138]; conditions: top dose 10.24 µM; top dose inferred
Experimental: as §1

Thapsigargin = compound: C/C=C(/C)C(=O)O[C@H]1C(C)=C2[C@H]([C@@H]1OC(=O)CCCCCCC)[C@@](C)(OC(C)=O)C[C@H](OC(=O)CCC)[C@@]1(O)[C@H]2OC(=O)[C@@]1(C)O [Thapsigargin]; conditions: top dose 0.512 µM; top dose inferred
Experimental: as §1

CHIR-99021 = compound: Cc1cnc(-c2cnc(NCCNc3ccc(C#N)cn3)nc2-c2ccc(Cl)cc2Cl)[nH]1 [CHIR-99021]
Experimental: as §1

Zibotentan = compound: COc1nc(C)cnc1NS(=O)(=O)c1cccnc1-c1ccc(-c2nnco2)cc1 [Zibotentan]; conditions: top dose 20 µM; top dose inferred
Experimental: as §1

ABT-888 = compound: C[C@]1(c2nc3c(C(N)=O)cccc3[nH]2)CCCN1 [ABT-888]; conditions: top dose 5 µM; top dose inferred
Experimental: as §1

(5Z)-7-Oxozeaenol = compound: COc1cc(O)c2c(c1)/C=C/C[C@H](O)[C@H](O)C(=O)/C=C\C[C@H](C)OC2=O [(5Z)-7-Oxozeaenol]; conditions: top dose 10 µM; top dose inferred
Experimental: as §1

[1] = top dose 5 µM, screen: GDSC drug entry 1192
[2] = top dose 2.56 µM, screen: GDSC drug entry 154
[3] = top dose 10 µM, screen: GDSC drug entry 1241, top dose inferred
[4] = top dose 2.5 µM, screen: GDSC drug entry 127

| Cell Line | AUC (Cytarabine) | IC50 (Cytarabine) | AUC (KU-55933) | IC50 (KU-55933) | AUC (MPS-1-IN-1) | IC50 (MPS-1-IN-1) | AUC (GSK269962A; [1]) | IC50 (GSK269962A; [1]) | AUC (CP466722) | IC50 (CP466722) | AUC (ABT-869) | IC50 (ABT-869) | AUC (QL-X-138) | IC50 (QL-X-138) | AUC (Thapsigargin) | IC50 (Thapsigargin) | AUC (CHIR-99021; [2]) | IC50 (CHIR-99021; [2]) | AUC (CHIR-99021; [3]) | IC50 (CHIR-99021; [3]) | AUC (Zibotentan) | IC50 (Zibotentan) | AUC (ABT-888) | IC50 (ABT-888) | AUC ((5Z)-7-Oxozeaenol) | IC50 ((5Z)-7-Oxozeaenol) | AUC (GSK269962A; [4]) | IC50 (GSK269962A; [4]) |
| --- | --- | --- | --- | --- | --- | --- | --- | --- | --- | --- | --- | --- | --- | --- | --- | --- | --- | --- | --- | --- | --- | --- | --- | --- | --- | --- | --- | --- |
| JHH-7 (liver, adherent) | 0.895 | > 2 µM | 0.989 | > 10 µM | 0.947 | > 20 µM | 0.807 | 2.37 µM | 0.886 | 15.8 µM | 0.986 | > 1.02 µM | 0.77 | 3.66 µM | 0.259 | 0.00692 µM | 0.989 | > 2.56 µM | 0.988 | > 10 µM | 0.989 | > 20 µM | 0.985 | > 5 µM | 0.662 | 1.71 µM | – | – |
| JURL-MK1 (chronic myeloid leukaemia, suspension) | 0.401 | 0.067 µM | 0.972 | > 10 µM | 0.927 | > 20 µM | 0.937 | > 5 µM | 0.648 | 2.56 µM | 0.985 | > 1.02 µM | 0.603 | 1.23 µM | 0.403 | 0.0173 µM | 0.978 | > 2.56 µM | 0.977 | > 10 µM | 0.979 | > 20 µM | 0.94 | > 5 µM | 0.751 | 3.28 µM | 0.975 | > 2.5 µM |
| K2 (melanoma, adherent) | 0.687 | 0.493 µM | 0.982 | > 10 µM | 0.919 | > 20 µM | 0.888 | > 5 µM | 0.869 | > 16 µM | 0.982 | > 1.02 µM | 0.805 | 7.1 µM | 0.416 | 0.0176 µM | 0.913 | > 2.56 µM | 0.931 | > 10 µM | 0.979 | > 20 µM | 0.971 | > 5 µM | 0.181 | 0.0486 µM | – | – |
| KMH-2 (thyroid, adherent) | 0.758 | 0.628 µM | 0.99 | > 10 µM | 0.916 | > 20 µM | 0.854 | 3.29 µM | 0.784 | 6.01 µM | 0.968 | > 1.02 µM | 0.664 | 1.73 µM | 0.111 | 0.00216 µM | 0.964 | > 2.56 µM | 0.955 | > 10 µM | 0.99 | > 20 µM | 0.984 | > 5 µM | 0.427 | 0.404 µM | – | – |
| KMRC-1 (kidney, adherent) | 0.827 | 1.32 µM | 0.986 | > 10 µM | 0.984 | > 20 µM | 0.783 | 2.24 µM | 0.945 | > 16 µM | 0.982 | > 1.02 µM | 0.902 | > 10.2 µM | 0.962 | > 0.512 µM | 0.962 | > 2.56 µM | 0.934 | > 10 µM | 0.986 | > 20 µM | 0.946 | > 5 µM | 0.571 | 0.991 µM | – | – |
| KMRC-20 (kidney, adherent) | 0.841 | 1.42 µM | 0.95 | > 10 µM | 0.989 | > 20 µM | 0.907 | > 5 µM | 0.982 | > 16 µM | 0.984 | > 1.02 µM | 0.969 | > 10.2 µM | 0.974 | > 0.512 µM | 0.989 | > 2.56 µM | 0.988 | > 10 µM | 0.989 | > 20 µM | 0.989 | > 5 µM | 0.888 | > 10 µM | – | – |
| KP-3 (pancreas, adherent) | 0.783 | 1.02 µM | 0.984 | > 10 µM | 0.897 | > 20 µM | 0.883 | > 5 µM | 0.768 | 7.12 µM | 0.98 | > 1.02 µM | 0.867 | > 10.2 µM | 0.29 | 0.00724 µM | 0.983 | > 2.56 µM | 0.951 | > 10 µM | 0.982 | > 20 µM | 0.984 | > 5 µM | 0.721 | 3.02 µM | – | – |
| KYSE-50 (oesophagus, adherent) | 0.874 | 1.67 µM | 0.973 | > 10 µM | 0.746 | 5.86 µM | 0.989 | > 5 µM | 0.834 | 9.16 µM | 0.965 | > 1.02 µM | 0.75 | 3.09 µM | 0.215 | 0.00515 µM | 0.975 | > 2.56 µM | 0.963 | > 10 µM | 0.989 | > 20 µM | 0.99 | > 5 µM | 0.863 | 7.46 µM | – | – |
| KYSE-150 (oesophagus, adherent) | 0.987 | > 2 µM | 0.984 | > 10 µM | 0.925 | > 20 µM | 0.984 | > 5 µM | 0.906 | > 16 µM | 0.988 | > 1.02 µM | 0.828 | 5.98 µM | 0.196 | 0.00421 µM | 0.981 | > 2.56 µM | 0.988 | > 10 µM | 0.99 | > 20 µM | 0.943 | > 5 µM | 0.817 | 5.29 µM | – | – |

A lower IC50 marks a more sensitive line; a limit (>, <) means that the fit lies beyond the doses tested. The AUC spans the tested range (256-fold, ending at the top dose) of the same fit; values near 1 show little effect. For some assays here: A top dose marked as inferred was calculated from the reported fits. For some assays here: An entry number marks a drug with two screens in the source, which often give different values.
